Consider six molecules from patent publication US20260265359A1 (Hoffmann-La Roche, published 2026).

B1: EB-105BI-10C (other)
heavy: QVQLQESGPGLVRPSQTLSLTCTVSGYSITSDHAWSWVRQPPGRGLEWIGYISYSGITTYNPSLKSRVTMLRDTSKNQFSLRLSSVTAADTAVYYCARSLARTTAMDYWGQGSLVTVSSASTKGPSVFPLAPSSKSTSGGTAALGCLVKDYFPEPVTVSWNSGALTSGVHTFPAVLQSSGLYSLSSVVTVPSSSLGTQTYICNVNHKPSNTKVDKKV[human IgG1 Fc skipped]GGSGGGGSGGGGSMGAQQKFQPLDELEQTLYEQFMLQQALE
light: SDTGRPFVEMYSEIPEIIHMTEGRELVIPCRVTSPNITVTLKKFPLDTLIPDGKRIIWDSRKGFIISNATYKEIGLLTCEATVNGHLYKTNYLTHRQTNTIIDVVLSPSHGIELSVGEKLVLNCTARTELNVGIDFNWEYPSSKHQHKKLVNRDLKTQSGSEMKKFLSTLTIDGVTRSDQGLYTCAASSGLMTKKNSTFVRVHEKDIQMTQSPSSLSASVGDRVTITCRASQDISSYLNWYQQKPGKAPKLLIYYTSRLHSGVPSRFSGSGSGTDFTFTISSLQPEDIATYYCQQGNTLPYTFGQGTKVEIKRTVAAPSVFIFPPSDEQLKSGTASVVCLLNNFYPREAKVQWKVDNALQSGNSQESVTEQDSKDSTYSLSSTLTLSKADYEKHKVYACEVTHQGLSSPVTKSFNRGEC
notes: Trispecific antibody fusion protein, first embodiment; also called B21138003
B2: EB-105BI-Con4-40CA (other)
heavy: QVQLQESGPGLVRPSQTLSLTCTVSGYSITSDHAWSWVRQPPGRGLEWIGYISYSGITTYNPSLKSRVTMLRDTSKNQFSLRLSSVTAADTAVYYCARSLARTTAMDYWGQGSLVTVSSASTKGPSVFPLAPSSKSTSGGTAALGCLVKDYFPEPVTVSWNSGALTSGVHTFPAVLQSSGLYSLSSVVTVPSSSLGTQTYICNVNHKPSNTKVDKKV[human IgG1 Fc skipped]GGSGGGGSGGGGSAQTNIQEECEWDPWTCDHMPGKLE
light: B1 light
notes: Trispecific antibody fusion protein, first embodiment; also called B21138008
B3: EB-105BI-Con4-40CB (other)
heavy: QVQLQESGPGLVRPSQTLSLTCTVSGYSITSDHAWSWVRQPPGRGLEWIGYISYSGITTYNPSLKSRVTMLRDTSKNQFSLRLSSVTAADTAVYYCARSLARTTAMDYWGQGSLVTVSSASTKGPSVFPLAPSSKSTSGGTAALGCLVKDYFPEPVTVSWNSGALTSGVHTFPAVLQSSGLYSLSSVVTVPSSSLGTQTYICNVNHKPSNTKVDKKV[human IgG1 Fc skipped]GGSGGGGSAQTNIQEECEWDPWTCDHMPGKLE
light: B1 light
notes: Trispecific antibody fusion protein, first embodiment; also called B21138009
B4: EB-105BI-Con4C (other)
heavy: QVQLQESGPGLVRPSQTLSLTCTVSGYSITSDHAWSWVRQPPGRGLEWIGYISYSGITTYNPSLKSRVTMLRDTSKNQFSLRLSSVTAADTAVYYCARSLARTTAMDYWGQGSLVTVSSASTKGPSVFPLAPSSKSTSGGTAALGCLVKDYFPEPVTVSWNSGALTSGVHTFPAVLQSSGLYSLSSVVTVPSSSLGTQTYICNVNHKPSNTKVDKKV[human IgG1 Fc skipped]GGSGGGGSGGGGSAQQEECEWDPWTCEHMLE
light: B1 light
notes: Trispecific antibody fusion protein, first embodiment; also called B21138007
B5: EB-105BI-21C (other)
heavy: QVQLQESGPGLVRPSQTLSLTCTVSGYSITSDHAWSWVRQPPGRGLEWIGYISYSGITTYNPSLKSRVTMLRDTSKNQFSLRLSSVTAADTAVYYCARSLARTTAMDYWGQGSLVTVSSASTKGPSVFPLAPSSKSTSGGTAALGCLVKDYFPEPVTVSWNSGALTSGVHTFPAVLQSSGLYSLSSVVTVPSSSLGTQTYICNVNHKPSNTKVDKKV[human IgG1 Fc skipped]GGSGGGGSGGGGSMGAQHTFQPLDELEETLYYQWLYDQLLE
light: B1 light
notes: Trispecific antibody fusion protein, first embodiment; also called B21138006
B6: EB-105BI-15CB (other)
heavy: QVQLQESGPGLVRPSQTLSLTCTVSGYSITSDHAWSWVRQPPGRGLEWIGYISYSGITTYNPSLKSRVTMLRDTSKNQFSLRLSSVTAADTAVYYCARSLARTTAMDYWGQGSLVTVSSASTKGPSVFPLAPSSKSTSGGTAALGCLVKDYFPEPVTVSWNSGALTSGVHTFPAVLQSSGLYSLSSVVTVPSSSLGTQTYICNVNHKPSNTKVDKKV[human IgG1 Fc skipped]GGSGGGGSMGAQQKYQPLDELDKTLYDQFMLQQGLE
light: B1 light
notes: Trispecific antibody fusion protein, first embodiment; also called B21138005

The target of one test is T1, recombinant human VEGF-A165 (human, UniProt P15692-4 27-191).
T1 sequence (looked up): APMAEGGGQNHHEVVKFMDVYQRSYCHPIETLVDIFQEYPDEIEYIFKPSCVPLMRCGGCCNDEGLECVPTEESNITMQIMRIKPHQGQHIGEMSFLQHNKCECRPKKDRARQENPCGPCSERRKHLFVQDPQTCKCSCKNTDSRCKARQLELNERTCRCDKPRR
As to the kind of experiment: cell-based or functional assay.
As for B1, the “IC50, inhibition of VEGF-A165-stimulated VEGFR-2 NF-AT luciferase reporter (HEK-293), luminescence” value (shortened to “IC50, inhibition”) came out at 0.595 nM.

The target of a further test is T1, recombinant human VEGF-A165. As to the kind of experiment: cell-based or functional assay. The source holds these as a separate data set.
For the molecule B2, the “IC50, inhibition” value was determined as 0.544 nM.
For B3, the “IC50, inhibition” value was determined as 0.594 nM.
On to B4, for which the “IC50, inhibition” value amounted to 0.674 nM.
The same measure, in the same setting: the same measure for B5: 0.638 nM.

The target of a further test is T2, recombinant human PIGF (human, UniProt P49763-2 19-149, limits assumed).
T2 construct: also called PlGF; placental growth factor
T2 sequence (looked up): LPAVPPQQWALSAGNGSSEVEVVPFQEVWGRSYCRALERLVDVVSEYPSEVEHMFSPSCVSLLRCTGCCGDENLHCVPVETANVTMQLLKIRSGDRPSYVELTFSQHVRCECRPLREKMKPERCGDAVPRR
As to the kind of experiment: ELISA on plate-coated recombinant human PIGF; anti-human IgG1-Fc-HRP, OD450. Here is the method:
(§1) After non-specific blocking using 1% BSA at 25° C. for 1 hour, a series of dilutions of test antibodies (“Abs”) were added into the coated wells and incubated at 25° C. for 1 hour. The bound Abs were detected using a secondary Ab (goat anti-human IgG1-Fc) conjugated with HRP followed by OD₄₅₀ reading.
Background: ELISA stands for enzyme-linked immunosorbent assay.
With B1, the EC50 (in general, the concentration that produces a half-maximal response) turned out to be 0.047 nM.
Turning to B2, the EC50 was determined as 0.054 nM.
Regarding B3, the half-maximal effective concentration (EC50) was determined as 0.061 nM.
The same measure, in the same setting: then B4, with 0.054 nM; and B6, with 0.076 nM.
For B5, the 50% effective concentration (EC50) was found to be 0.086 nM.

A further test deals with T3, recombinant human IL-6R (human, UniProt P08887 20-365, limits assumed).
T3 construct: Recombinant protein used in ELISA and as SPR analyte; also called hIL-6R
T3 sequence (looked up): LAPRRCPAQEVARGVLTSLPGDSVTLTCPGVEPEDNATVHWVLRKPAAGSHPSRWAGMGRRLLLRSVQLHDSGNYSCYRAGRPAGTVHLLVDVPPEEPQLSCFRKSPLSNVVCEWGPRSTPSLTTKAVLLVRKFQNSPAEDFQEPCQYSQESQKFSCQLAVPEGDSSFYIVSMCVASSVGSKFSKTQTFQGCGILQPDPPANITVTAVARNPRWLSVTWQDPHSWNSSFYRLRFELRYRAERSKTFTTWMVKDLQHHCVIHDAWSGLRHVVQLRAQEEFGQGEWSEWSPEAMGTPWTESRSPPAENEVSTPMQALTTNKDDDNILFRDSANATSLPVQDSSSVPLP
Put plainly: ELISA on plate-coated recombinant human IL-6R; anti-human IgG1-Fc-HRP, OD450. The protocol: as §1
The same ELISA procedure was performed with recombinant human IL-6R. […] Vobarilizumab is a single domain antibody against IL-6R. B781402 and B781405 are bispecific fusion antibodies that inhibit VEGF-A, B, PIGF and IL-6R.
Take B1: the EC50 was 0.091 nM.
In the case of B2, the EC50 turned out to be 0.103 nM.
Regarding B3, the EC50 turned out to be 0.031 nM.
Still for that read-out and setting: the same measure for B4: 0.328 nM; for B6: 0.08 nM; for B5: 0.211 nM.

A further test concerns the target T4, recombinant human Ang-1 (human, UniProt Q15389 20-498, limits assumed).
T4 construct: also called Angiopoietin 1
T4 sequence (looked up): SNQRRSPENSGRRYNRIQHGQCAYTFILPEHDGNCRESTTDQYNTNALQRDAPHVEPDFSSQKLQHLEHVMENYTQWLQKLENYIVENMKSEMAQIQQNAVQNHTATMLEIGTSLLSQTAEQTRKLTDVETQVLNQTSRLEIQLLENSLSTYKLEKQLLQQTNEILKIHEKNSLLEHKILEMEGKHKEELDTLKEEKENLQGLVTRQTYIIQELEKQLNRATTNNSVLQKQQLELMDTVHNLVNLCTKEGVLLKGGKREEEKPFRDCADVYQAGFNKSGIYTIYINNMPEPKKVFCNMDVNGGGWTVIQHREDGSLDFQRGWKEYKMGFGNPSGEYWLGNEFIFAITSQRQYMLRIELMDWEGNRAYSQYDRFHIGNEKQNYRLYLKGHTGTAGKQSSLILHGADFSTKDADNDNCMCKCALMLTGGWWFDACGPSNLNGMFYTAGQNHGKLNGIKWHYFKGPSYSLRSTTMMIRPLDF
As to the kind of experiment: ELISA on plate-coated recombinant human Ang-1; anti-human IgG1-Fc-HRP, OD450. Here is the method:
as §1
The same ELISA procedure was performed with recombinant human Ang-1.
For the molecule B1, the half-maximal effective concentration (EC50) came out at 15.4 nM.
As to B2, the EC50 amounted to 2.27 nM.
The same measure, in the same setting: then B3, with 4.22 nM; and B5, with 10.6 nM.

The target in the next test is T5, recombinant human Ang-2 (human, UniProt O15123 19-496, limits assumed).
T5 construct: also called Angiopoietin-2; hAng-2
T5 sequence (looked up): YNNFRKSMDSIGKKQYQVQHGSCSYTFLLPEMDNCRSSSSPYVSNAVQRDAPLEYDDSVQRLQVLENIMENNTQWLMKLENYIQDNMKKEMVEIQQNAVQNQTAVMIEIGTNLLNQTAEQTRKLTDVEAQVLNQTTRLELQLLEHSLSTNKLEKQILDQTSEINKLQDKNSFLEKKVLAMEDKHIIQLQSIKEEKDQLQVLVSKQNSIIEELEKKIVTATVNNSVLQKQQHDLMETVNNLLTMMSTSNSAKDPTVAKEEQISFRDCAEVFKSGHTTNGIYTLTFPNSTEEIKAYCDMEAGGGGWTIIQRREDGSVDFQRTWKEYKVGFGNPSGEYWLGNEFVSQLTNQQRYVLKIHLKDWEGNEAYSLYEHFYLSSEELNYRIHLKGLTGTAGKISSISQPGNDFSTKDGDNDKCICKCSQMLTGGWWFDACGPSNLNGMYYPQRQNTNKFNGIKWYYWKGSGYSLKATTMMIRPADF
As to the kind of experiment: ELISA on plate-coated recombinant human Ang-2; anti-human IgG1-Fc-HRP, OD450. Here is the method:
as §1
Turning to B1, the EC50 was determined as 0.23 nM.
B6: the EC50 is 0.139 nM.

The target in the next test is T5, recombinant human Ang-2. The description is as above. This is another data set of the same source. The protocol:
as §1
B1: the EC50 is 0.205 nM.
As for B2, the concentration for a half-maximal effect (EC50) worked out at 0.146 nM.
For B3, the EC50 was 0.113 nM.
As to B5, the EC50 worked out at 0.206 nM.

Another test deals with T6, recombinant human VEGF-B167 (human, UniProt P49765-2 22-188).
T6 sequence (looked up): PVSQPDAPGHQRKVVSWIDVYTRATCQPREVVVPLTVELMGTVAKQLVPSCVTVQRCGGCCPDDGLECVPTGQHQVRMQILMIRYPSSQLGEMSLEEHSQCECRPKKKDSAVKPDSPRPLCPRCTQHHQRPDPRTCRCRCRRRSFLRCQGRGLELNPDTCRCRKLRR
As to the kind of experiment: ELISA on plate-coated recombinant human VEGF-B167; anti-human IgG1-Fc-HRP, OD450. The protocol: as §1
Regarding B1, the 50% effective concentration (EC50) came to 0.044 nM.
Turning to B2, the half-maximal effective concentration (EC50) was determined as 0.044 nM.
Same read-out and setting: then B3, with 0.01 nM; and B5, with 0.073 nM.

The next test concerns the target T1, recombinant human VEGF-A165. Put plainly: ELISA on plate-coated recombinant human VEGF-A165; anti-human IgG1-Fc-HRP, OD450. Here is the method:
as §1
For B1, the EC50 amounted to 0.062 nM.
With B2, the EC50 amounted to 0.088 nM.
Still for that read-out and setting: then B3, with 0.072 nM.
The same measure, in the same setting: then B4, with 0.145 nM.
B6: the 50% effective concentration (EC50) was 0.069 nM.
Still for that read-out and setting: then B5, with 0.091 nM.
